Test results as given in PubChem BioAssay AID504339 (National Center for Advancing Translational Sciences (NCATS), 2011).
Hit rate of the full screen: of about 390,000 compounds, about 17,000 (4.4%) were called active. Inconclusive means that the source gave no clear call. Such entries were picked first, then a sample of the others. The call rests on the fitted dose curve; in most records, active means well fitted inhibition curve with a large enough effect; inconclusive means small, poorly fitted or top-dose-only effect; inactive means no such curve, though single readings can be large or run the other way. Potencies of inconclusive entries are doubtful fits and often do not repeat.
Further: nearly all actives have a fitted effect of over 50% in size.
On the % scale 0 is the no-effect control and ±100 the full control effect; potency means the concentration at half of the fitted maximal effect; tags describe the fitted curve by direction and shape.

The compounds below were run against Lysine-specific demethylase 4A (Homo sapiens) (UniProt O75164) (assay: qHTS Assay for Inhibitors of JMJD2A-Tudor Domain). Conditions: AlphaScreen JMJD2A-Tudor / H3K4me3 peptide binding; activity change, negative = inhibition: at 114 µM (top of the series).
UniProt O75164, sequence (O75164 whole entry, looked up, the tested form may be a part): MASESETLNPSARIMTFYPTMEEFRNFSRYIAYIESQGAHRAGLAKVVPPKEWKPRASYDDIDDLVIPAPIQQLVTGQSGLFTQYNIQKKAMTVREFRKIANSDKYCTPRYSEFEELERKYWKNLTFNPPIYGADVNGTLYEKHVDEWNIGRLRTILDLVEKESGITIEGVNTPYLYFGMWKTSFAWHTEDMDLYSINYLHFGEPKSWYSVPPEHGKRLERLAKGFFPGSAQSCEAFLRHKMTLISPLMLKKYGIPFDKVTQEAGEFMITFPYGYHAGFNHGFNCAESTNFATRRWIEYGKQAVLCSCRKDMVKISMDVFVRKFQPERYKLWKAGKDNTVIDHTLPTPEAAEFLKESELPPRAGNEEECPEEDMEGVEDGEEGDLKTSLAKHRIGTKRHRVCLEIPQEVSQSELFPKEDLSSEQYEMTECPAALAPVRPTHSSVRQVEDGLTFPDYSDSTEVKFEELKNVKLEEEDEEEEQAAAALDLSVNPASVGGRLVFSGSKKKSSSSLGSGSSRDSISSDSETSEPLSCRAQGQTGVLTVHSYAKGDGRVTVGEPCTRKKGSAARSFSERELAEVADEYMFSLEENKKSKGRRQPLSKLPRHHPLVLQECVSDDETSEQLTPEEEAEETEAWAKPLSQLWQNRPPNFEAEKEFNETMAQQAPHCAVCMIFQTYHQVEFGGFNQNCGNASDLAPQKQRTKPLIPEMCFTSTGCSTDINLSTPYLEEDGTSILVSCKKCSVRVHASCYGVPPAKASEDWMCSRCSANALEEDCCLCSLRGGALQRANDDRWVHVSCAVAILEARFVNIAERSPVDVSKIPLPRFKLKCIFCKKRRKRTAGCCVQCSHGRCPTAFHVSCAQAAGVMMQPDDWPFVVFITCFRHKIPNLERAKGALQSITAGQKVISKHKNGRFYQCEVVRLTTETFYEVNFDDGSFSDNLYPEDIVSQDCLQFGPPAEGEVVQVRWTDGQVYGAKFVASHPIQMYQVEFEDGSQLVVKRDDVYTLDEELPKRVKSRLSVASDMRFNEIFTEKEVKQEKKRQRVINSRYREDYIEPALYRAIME
In the case of `CC1=CC(C)(C)[N+](C)(C)c2ccc(C)cc21`, the Potency is reported as inconclusive: 31.6 µM [inhibitor, single point]. `O=C(/C=C/c1ccc2ccccc2n1)c1cc(Cl)ccc1O` was tested, and the Potency was inconclusive: 39.8 µM [inhibitor, partial curve]. `Cc1cc(C(=O)COC(=O)CCc2nc3ccccc3s2)c(C)n1C` was tested, and the Potency was inconclusive: 56.2 µM [inhibitor, partial curve]. `CN(C)C(CNC(=O)c1cc(-c2ccco2)nc2ccccc12)c1ccccc1` (stereo not given) was tested, and the Potency was inconclusive: 112 µM [inhibitor, partial curve, poor fit]. With `Cc1c(C#N)c(=O)c(-[n+]2ccccc2)c([S-])n1-c1ccc(Cl)cc1` the Potency was inconclusive: 89.1 µM [inhibitor, partial curve]. In the case of `O=C(N/N=C/c1ccc(N2CCOCC2)o1)c1cccc(C(F)(F)F)c1`, the Potency is reported as inconclusive: 89.1 µM [inhibitor, partial curve]. With `O=C(Nc1ccccc1C(=O)NC1CC1)c1ccc([N+](=O)[O-])o1` the Potency was inconclusive: 50.1 µM [inhibitor, partial curve]. For `N#Cc1c(/N=C\c2ccc(O)c([N+](=O)[O-])c2)sc2c1CCCC2`, the Potency was inconclusive: 70.8 µM [inhibitor, partial curve]. `Cc1coc2c(O)cc3c(c12)OC1(N2CCCCC2)C(=O)NCCCC31` (stereo not given) was tested, and the Potency was active: 20 µM. In the case of `CSc1ncc(F)c(N(CCO)CCO)n1`, the “activity change, negative = inhibition” value is reported as inactive: -10%. `O=C1c2ccccc2-c2onc3ccc(NCCCn4ccnc4)c1c23` was tested, and the Potency was active: 50.1 µM. In the case of `O=C1C=C(O)c2[nH]c(=O)ccc2C1=O`, the Potency is reported as active: 10 µM. For `CCOc1ccc(NC(=S)NC(=O)c2c(Br)cnn2C)c([N+](=O)[O-])c1`, the Potency was inconclusive: 14.1 µM [inhibitor, full curve]. In the case of `CCOc1ccc(-n2nc3ccc(NC(=O)CC)cc3n2)cc1`, the Potency is reported as inconclusive: 28.2 µM [inhibitor, full curve]. For `Cc1cc(Nc2ccccc2C)nc(-n2nc(C)cc2C)n1`, the Potency was inconclusive: 10 µM [inhibitor, full curve, poor fit]. In the case of `C/C(=N/OC(=O)c1ccc(C)cc1)c1ccc(N2C(=O)C3CCCCC3C2=O)cc1` (stereo not given), the Potency is reported as active: 39.8 µM. For `CC(=O)Nc1ccc(S(=O)(=O)NCCC(=O)Nc2ncccc2C)cc1`, the “activity change, negative = inhibition” value was inactive: -2.07%. With `O=C(Cc1ccc(S(=O)(=O)N2CCCC2)s1)Nc1nc2c(s1)CCCC2` the Potency was inconclusive: 31.6 µM [inhibitor, full curve]. With `Oc1c(CN2CCOCC2)ccc(CN2CCOCC2)c1O` the Potency was active: 3.55 µM. For `COc1ccccc1/C=C/c1nc(S(=O)(=O)c2ccccc2)c(NCCN(C)C)o1`, the Potency was inconclusive: 15.8 µM [inhibitor, full curve]. With `O=C(O)Cc1ccc(Nc2cnn(C34CC5CC(CC(CC(=O)O)(C5)C3)C4)c(=O)c2Cl)cc1` the Potency was inconclusive: 31.6 µM [inhibitor, single point]. For `O=[N+]([O-])c1cc(C(F)(F)F)ccc1NCC1CCCO1` (stereo not given), the Potency was inconclusive: 35.5 µM [inhibitor, single point]. With `Cc1cccc(Nc2cc(C)c3c(O)cccc3n2)c1C` the Potency was active: 44.7 µM. With `Cc1ccc(-n2c(C)cc(C(=O)CSc3n[nH]c(N)n3)c2C)cc1` the Potency was inconclusive: 44.7 µM [inhibitor, partial curve]. For `Cc1ccc2c(CNCc3ccccc3)cc(=O)oc2c1`, the Potency was inconclusive: 22.4 µM [inhibitor, single point]. For `O=C(N/N=C/c1cc([N+](=O)[O-])ccc1O)/C(=C\c1cccs1)NC(=O)c1ccccc1`, the activity change, negative = inhibition was inconclusive: -77.2% [inhibitor]. `Nc1ccc2c(c1)C(=NO)c1cc([N+](=O)[O-])ccc1-2` was tested, and the Potency was inconclusive: 10 µM [inhibitor, full curve]. In the case of `COc1cccc(NC(=O)c2cccc(N3C(=O)C4CCC(C)CC4C3=O)c2)c1` (stereo not given), the “activity change, negative = inhibition” value is reported as inactive: -15.7%. In the case of `Cc1ccccc1NS(=O)(=O)c1ccc2[nH]cc(C(=O)NC(C)c3ccccc3)c(=O)c2c1` (stereo not given), the Potency is reported as inconclusive: 70.8 µM [inhibitor, single point]. With `O=C1Nc2ccccc2/C1=C/c1ccccc1F` the Potency was inconclusive: 17.8 µM [inhibitor, full curve]. For `CCCCn1c(N)c(N(CC)C(=O)c2ccc(N3CCCC3=O)cc2)c(=O)[nH]c1=O`, the “activity change, negative = inhibition” value was inactive: -3.28%. In the case of `Cc1cccc(Nc2nn3c(=O)c4ccccc4nc3s2)c1`, the Potency is reported as inconclusive: 89.1 µM [inhibitor, single point]. With `CNc1ccc(C(=O)c2ccccc2C(=O)O)cc1[N+](=O)[O-]` the Potency was inconclusive: 39.8 µM [inhibitor, single point]. With `O=C(O)[C@H](Cc1ccccc1)NC(=O)C(c1ccccc1)(c1ccccc1)c1ccccc1` the Potency was inconclusive: 25.1 µM [inhibitor, full curve, poor fit]. `O=C(NCc1ccco1)c1ccc2c(c1)C(=O)N(C1CCCCC1)C2=O` was tested, and the Potency was inconclusive: 89.1 µM [inhibitor, single point]. In the case of `CN(C)c1cccc(NC(=O)c2cccc3ccccc23)c1`, the Potency is reported as active: 22.4 µM. In the case of `CCN(CC)c1ccc(Nc2nc(N3CCOCC3)c3ccccc3n2)cc1`, the Potency is reported as active: 17.8 µM. With `CCn1c(SCC(=O)Nc2nc(C)cs2)nnc1C(C)NC(=O)c1ccccc1` (stereo not given) the Potency was active: 79.4 µM. For `O=C(O)C1CCC(C(=O)O)O1` (stereo not given), the Potency was active: 44.7 µM. With `COc1ccc(CN(C(=O)c2oc3cc(C)c(C)cc3c2C)C2CCS(=O)(=O)C2)cc1OC` (stereo not given) the Potency was inconclusive: 79.4 µM [inhibitor, partial curve]. `COc1ccc(N2CCN(S(=O)(=O)c3ccc(-n4cnnn4)c(C)c3)CC2)cc1` was tested, and the “activity change, negative = inhibition” value was inactive: -16.6%. For `COc1ccc(-c2nc3c4cnn(-c5ccccc5F)c4ncn3n2)cc1`, the “activity change, negative = inhibition” value was inactive: -7.99%. With `COc1ccc(-c2cnc(N)n2CC2CCCO2)cc1` (stereo not given) the Potency was inconclusive: 63.1 µM [inhibitor, partial curve, poor fit]. `COc1ccc(N2CCN(S(=O)(=O)c3csc(C(N)=O)c3)CC2)cc1` was tested, and the “activity change, negative = inhibition” value was inactive: -10.3%. `CCC(C)(C)n1nnnc1C(c1cc2ccc(OC)cc2[nH]c1=O)N1CCc2ccccc21` (stereo not given) was tested, and the Potency was inconclusive: 15.8 µM [inhibitor, full curve].
